In PubChem BioAssay AID2676 (National Center for Advancing Translational Sciences (NCATS), 2010):
Out of some 370,000 compounds screened, about 1,100 (0.3%) were called active. Inconclusive means that the source gave no clear call. Such entries were picked first, then a sample of the others. Calls follow the shape of the dose curve; as a rule, active = well fitted activation curve with a large enough effect; inconclusive = small, poorly fitted or top-dose-only effect; inactive = flat fitted curve, though single readings scatter. Where the call is inconclusive, the potency comes from a doubtful curve fit.

Target: Relaxin receptor 1 (Homo sapiens) (UniProt Q9HBX9)
UniProt Q9HBX9, sequence (Q9HBX9 whole entry, looked up): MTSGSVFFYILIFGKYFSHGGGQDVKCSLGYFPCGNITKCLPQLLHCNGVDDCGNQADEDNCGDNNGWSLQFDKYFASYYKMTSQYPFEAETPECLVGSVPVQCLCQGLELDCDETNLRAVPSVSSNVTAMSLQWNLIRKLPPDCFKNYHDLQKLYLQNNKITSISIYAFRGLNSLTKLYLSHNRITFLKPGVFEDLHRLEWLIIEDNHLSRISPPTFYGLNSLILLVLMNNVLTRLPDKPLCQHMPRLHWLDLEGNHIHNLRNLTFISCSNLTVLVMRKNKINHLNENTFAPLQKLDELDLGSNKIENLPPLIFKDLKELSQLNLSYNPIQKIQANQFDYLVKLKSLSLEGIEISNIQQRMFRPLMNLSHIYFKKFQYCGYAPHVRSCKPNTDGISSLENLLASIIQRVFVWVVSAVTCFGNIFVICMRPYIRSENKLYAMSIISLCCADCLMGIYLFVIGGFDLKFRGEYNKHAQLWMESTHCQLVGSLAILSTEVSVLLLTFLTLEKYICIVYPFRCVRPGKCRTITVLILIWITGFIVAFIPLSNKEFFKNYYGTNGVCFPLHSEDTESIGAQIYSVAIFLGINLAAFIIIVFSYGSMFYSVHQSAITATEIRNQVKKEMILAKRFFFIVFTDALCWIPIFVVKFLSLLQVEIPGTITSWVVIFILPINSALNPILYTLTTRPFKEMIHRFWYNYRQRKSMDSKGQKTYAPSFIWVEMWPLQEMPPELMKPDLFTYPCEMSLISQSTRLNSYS
Experiment: qHTS Assay for Agonists of the Relaxin Receptor RXFP1; also: nearly all actives have a fitted effect of over 60% in size
Conditions: HEK293T-RXFP1 cAMP TR-FRET, 30 min; series mostly up to 57.5 µM; activation: at the top concentration
Method in brief: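 HEK293T cells stably expressing RXFP1 were pretreated with the PDE4 inhibitor Ro 20174, exposed to compounds for 30 min at 37C, lysed, and cAMP was read by TR-FRET. Data normalized to buffer (basal) and 29 nM porcine relaxin (100%).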
% is scaled to controls: 0 for no effect and ±100 for the full control effect; potency is read from the fitted curve at half-maximal effect; tags tell the direction and shape of the fitted curve.

| SMILES | activation | Potency |
| --- | --- | --- |
| O=C(Nc1nc2ccccc2[nH]1)c1cccc(F)c1 | inactive: 0.915% | – |
| CC(=O)N1N=C(c2cccc([N+](=O)[O-])c2)OC1c1cccc(Br)c1 (stereo not given) | inactive: 1.99% | – |
| CCCc1nc(SCC(=O)N2CCc3ccccc3C2)c2ccccc2n1 | – | inconclusive: 22.4 µM [activator, partial curve] |
| COc1ccc(-c2c3c([nH]c(=S)c2C#N)CCC3)cc1 | – | active: 31.6 µM |
| CCOc1cccc(C2/C(=C(/O)c3ccc4c(c3)CC(C)O4)C(=O)C(=O)N2CCN2CCOCC2)c1 (stereo not given) | – | inconclusive: 28.2 µM [activator, partial curve] |
| Cc1cc(O)c(CN2CCN(c3ccccc3)CC2)c2oc(=O)cc(C)c12 | – | active: 17.8 µM |
| O=C(CNC(=S)NC(=O)C1CCCCC1)c1ccccc1 | – | inconclusive: 39.8 µM [activator, single point] |
| O=C(Cc1ccc(-c2ccccc2)cc1)NCCS(=O)(=O)N1CCN(c2ccccc2F)CC1 | inactive: 1.38% | – |
| O=C(Nc1ccccc1C(=O)N1CCCCC1)c1nsc2ccccc12 | – | inconclusive: 31.6 µM [activator, partial curve] |
| Cc1c(/C(O)=C2/C(=O)C(=O)N(CCN3CCOCC3)C2c2cccs2)cnn1-c1ccccc1 (stereo not given) | inactive: 25.2% | – |
| c1cn(-c2ccc(-c3ccnc4ncnn34)cc2)cn1 | – | inconclusive: 25.1 µM [activator, partial curve] |
| COc1cccc(C(=O)Nc2ccc3nc(SCCOc4ccccc4)sc3c2)c1 | inactive: -0.766% | – |
| O=C(N=c1ccn(-c2nc3ccccc3nc2NS(=O)(=O)c2ccccc2)cc1)c1cccs1 | – | inconclusive: 39.8 µM [activator, single point] |
| COc1ccc(-c2cn3nc(SCC(=O)Nc4cccc(C)c4C)ccc3n2)cc1 | – | inconclusive: 39.8 µM [activator, single point] |
| Cc1ccc2nc(SCC(=O)Nc3ccc4c(c3)OCCO4)nc(=O)n2c1 | – | inconclusive: 28.2 µM [activator, partial curve] |
| CC(=O)c1c(C)[nH]c(C(=O)Nc2ccc(C)cc2Br)c1C | – | inconclusive: 35.5 µM [activator, single point] |
| Cc1sc(N(C(=O)CCc2ccccc2)c2ccc(C(=O)O)cc2)nc1-c1ccccc1 | inactive: 1.83% | – |
| Cn1c(=O)c2cc3ccc(Cl)cc3nc2n(C)c1=O | – | inconclusive: 35.5 µM [activator, single point] |
| COc1ccc(-c2nnc3ccc(SCC(=O)Nc4nc5ccccc5s4)nn23)cc1OC | – | inconclusive: 31.6 µM [activator, single point] |
| COc1ccc(-c2nn(C)c3sc(C(=O)NCc4ccco4)cc23)cc1OC | – | inconclusive: 25.1 µM [activator, single point] |
